Data published in PubChem BioAssay AID686971 (National Center for Advancing Translational Sciences (NCATS), 2013).
Hit rate of the full screen: of about 360,000 compounds, about 7,500 (2.1%) were called active. The inconclusive results got no clear call from the source; some entries with a clear call stand among them for comparison. Calls follow the shape of the dose curve; as a rule, active = well fitted cell-killing curve with a large enough effect; inconclusive = small, poorly fitted or top-dose-only effect, or effect the other way, or another doubt; inactive = no such curve, though single readings can be large or run the other way. No potency is given beside an inconclusive call; the fits are too rough.

Experiment: qHTS for induction of synthetic lethality in tumor cells producing 2HG: qHTS for the HT-1080-IDH1KD cell line
Conditions: HT-1080 IDH1 knockdown viability, ATP luminescence, 48 h; series mostly up to 46.1 µM
Outline: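 Luminescent ATP read-out (CellTiter-Glo, 10 min at room temperature) after 48 h compound exposure at 37 °C gave viability of IDH1-knockdown HT-1080 cells. Activity was normalised to DMSO and cell-free wells, then fitted as concentration-response curves.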
Potency is read from the fitted curve at half-maximal effect; tags tell the direction and shape of the fitted curve.

Row | Compound | Potency
1 | CC(NCc1ccc(Cl)c(Cl)c1)C(O)c1ccccc1 (stereo not given) | inconclusive [cytotoxic, single point]
2 | C[n+]1c(-c2ccccc2)cc(-c2ccc(Cl)cc2)cc1-c1ccccc1 | inconclusive [cytotoxic, single point]
3 | Cc1c(C(=O)Nc2ccccc2)c2cc(O)ccc2n1Cc1ccccc1 | inconclusive [cytotoxic, single point]
4 | C=C1C(C)C2C(Cc3ccccc3)NC(=O)C23OC(=O)/C=C/C(O)CCCC(C)C/C=C/C3C1O (stereo not given) | active: 8.2 µM
5 | COCCNC(=O)c1c(N)n(Cc2ccco2)c2nc3ccccc3nc12 | inconclusive [cytotoxic, single point]
6 | O=C1NC(=O)C(Sc2ccccc2[N+](=O)[O-])C(=O)N1 | inactive
7 | C[C@]12CC[C@H](N)CC1=CCC1C2CC[C@@]2(C)C1CC[C@@H]2O (stereo not given in full) | inconclusive [cytotoxic, single point]
8 | O=c1[nH]c2ccccc2n1C1CCN(C(c2nnnn2-c2ccc3c(c2)OCCO3)C2CC2)CC1 (stereo not given) | inconclusive [cytotoxic, partial curve]
9 | CCOC(=O)[C@]12Cc3cc(C)ccc3[C@H]1N(CCC(=O)OC)C(=O)c1ccccc12 | active: 13 µM
10 | O=c1c2ccccc2sn1-c1ccc(Cl)cc1 | inconclusive [cytotoxic, single point]
11 | Cc1ccc(S(=O)(=O)N[C@@H](CCCCN)C(=O)CCl)cc1 | inactive
12 | CC(C)(C)c1ccc(C(=O)NNC(=O)Cc2cccc3ccccc23)cc1 | inconclusive [cytotoxic, single point]
13 | CCn1c(=O)oc2cc(NC(=O)CCl)ccc21 | active: 5.17 µM
14 | Cc1cc(C)cc(NC(=S)NC2CC3CCCC(C2)N3Cc2cccs2)c1 (stereo not given) | active: 12.6 µM
15 | CCCNC(=O)N1[C@H]2CC[C@@H]1C(C(=O)OC)=C(c1ccc(OC)c(OC)c1)C2 | inactive
16 | CC(C)CN1C(=O)CN(S(C)(=O)=O)CC1(C)C(=O)NCc1ccccc1 (stereo not given) | inconclusive [rising, partial curve]
17 | CCOc1cc2c(cc1OCC)-n1cccc1C(c1ccccc1O)NC2 (stereo not given) | inconclusive [cytotoxic, single point]
18 | O=C(c1cc(F)ccc1F)C1CCCN(Cc2cc(Cl)ccc2O)C1 (stereo not given) | inconclusive [cytotoxic, single point]
19 | Oc1ccc(-c2csc(-c3ccccc3)n2)cc1O | active: 10 µM
20 | COc1ccc(S(=O)(=O)Nc2cc(C(=O)NC3CCCCCC3)ccc2N2CCOCC2)cc1 | inconclusive [cytotoxic, single point]
21 | COc1ccc(Oc2cc(NC(=O)c3nn(C)cc3[N+](=O)[O-])cc([N+](=O)[O-])c2)cc1 | active: 5.17 µM
22 | COc1cc(/C=C/[N+](=O)[O-])ccc1OC(=O)c1cccnc1 | inactive
23 | CC(=O)NCC(N)C(=O)c1ccc(Cl)c(Cl)c1 (stereo not given) | inactive

Row | Compound | Potency
24 | CC(C)CC(NC(=O)CCCNC(=O)CCC(=O)OC1O[C@H]2OC3(C)CC[C@H]4[C@H](C)CCC(C1C)C24OO3)C(=O)O (stereo not given in full) | active: 18.4 µM
25 | CN1CC[C@@]2(C)c3cc(O)ccc3N(C)[C@@H]12 | inconclusive [cytotoxic, single point]
26 | CC1=CC(=C2C(=O)NC(=O)NC2=O)C=C(C(F)(F)F)N1Cc1ccccc1 | inconclusive [cytotoxic, single point]
27 | Nc1cccc(SC2CC(=O)N(c3ccc(Cl)cc3C(=O)c3ccccc3)C2=O)c1 (stereo not given) | inactive
28 | CCCCC(=O)N/N=C/c1c(O)n(CCCC)c(=S)[nH]c1=O | inconclusive [cytotoxic, partial curve]
29 | CCOC(=O)[C@]12Cc3cc(OC)ccc3[C@H]1N(C1CCCCC1)C(=O)c1cc(OC)ccc12 | active: 18.4 µM
30 | O=C(c1ccc(Cl)cc1)C1CCCN(C2CCSCC2)C1 (stereo not given) | inactive
31 | CC(C)(C)c1cc([N+](=O)[O-])cc(C(C)(C)C)c1O | inconclusive [cytotoxic, single point]
32 | CC=C(CC)C1(CC)C(=O)NC(=S)NC1=O | inactive
33 | CCOc1ccc(-c2cc(C)[n+](CCc3ccc(OC)c(OC)c3)c(-c3ccc(OCC)cc3)c2)cc1 | active: 16.4 µM
34 | CC1C(OC(=O)CCC(=O)NC(C)(C)CO)O[C@H]2OC3(C)CC[C@H]4[C@H](C)CCC1C24OO3 (stereo not given in full) | active: 10.3 µM
35 | COc1cc2c(ccc3c4cc(OC)c(OC)cc4c[n+](C)c23)cc1O | inconclusive [cytotoxic, single point]
36 | COc1ccc2c3c1OC1C(O)C=CC4[C@@H](C2)N(C)CC[C@]314 (stereo not given in full) | inactive
37 | CCOC(=O)[C@]12Cc3ccc(C)cc3[C@H]1N(C1CCCCC1)C(=O)c1ccccc12 | active: 5.8 µM
38 | COC(=O)C1=C(c2ccc(OCc3ccccc3)cc2)C[C@@H]2CC[C@H]1N2C(=O)NC1CCN(Cc2ccccc2)CC1 | inconclusive [cytotoxic, single point]
39 | COc1ccc(-n2nc(C(=O)NCC(=O)N3CCC4(CC3)OCCO4)c3ccccc3c2=O)cc1Cl | inactive
40 | CCCCCCCCCCCCn1ccc(=N)cc1 | active: 1.84 µM
41 | Oc1ccc2c3c1O[C@H]1c4oc5ccccc5c4C[C@@]4(O)[C@@H](C2)N(CC2CC2)CC[C@]314 | inconclusive [cytotoxic, single point]
42 | CC[C@@]1(O)C(=O)OCc2c1cc1n(c2=O)Cc2cc3c(NC(=O)CN)cccc3nc2-1 | active: 1.84 µM
43 | Cc1c2ccncc2c(C)c2c1[nH]c1ccccc12 | active: 3.66 µM
44 | CCOC(=O)c1cccc(C2=C(CNC(=O)c3ccc([N+](=O)[O-])cc3)[C@H]3CC[C@@H](C2)N3Cc2ccccc2)c1 | inconclusive [cytotoxic, single point]
45 | Nc1c(C(=O)OCc2ccccc2)c2nc3ccccc3nc2n1Cc1cccs1 | inconclusive [cytotoxic, single point]
